Results reported in US20240277736A1, “USE OF PSILOCYBIN IN THE TREATMENT OF NEUROLOGICAL BRAIN INJURY AND MIGRAINES” (priority 2020, published 2024).

Test system: TBI mice
Assay: Morris water maze test in a mouse model of traumatic brain injury (controlled cortical impact)

## CN(C)CCc1c[nH]c2cccc(OP(=O)(O)O)c12 [Psilocybin, 4-phosphoryloxy-N,N-dimethyltryptamine]
Psi-H (high dose: 50 µM in 20 μl saline i.n.), Day 3 (PID3, before drug treatment)
  Time in the target area: 2.89 ± 0.57 s
Psi-H (high dose: 50 µM in 20 μl saline i.n., day 4 to day 8 after CCI), Day 10
  Time in the target area: 3.72 ± 0.26 s
Psi-H (high dose: 50 µM in 20 μl saline i.n., day 4 to day 8 after CCI), Day 14
  Time in the target area: 3.45 ± 0.18 s
Psi-H (high dose: 50 µM in 20 μl saline i.n., day 4 to day 8 after CCI), Day 21
  Time in the target area: 3.88 ± 0.18 s
Psi-L (low dose: 50 µM in 10 μl saline i.n.), Day 3 (PID3, before drug treatment)
  Time in the target area: 3.21 ± 0.84 s
Psi-L (low dose: 50 µM in 10 μl saline i.n., day 4 to day 8 after CCI), Day 10
  Time in the target area: 2.87 ± 0.45 s
Psi-L (low dose: 50 µM in 10 μl saline i.n., day 4 to day 8 after CCI), Day 14
  Time in the target area: 2.82 ± 0.45 s
Psi-L (low dose: 50 µM in 10 μl saline i.n., day 4 to day 8 after CCI), Day 21
  Time in the target area: 2.51 ± 0.41 s
